Assay results reported in the antibiotic and cytotoxicity screens of Wong et al. (2023).
The list shows a part of the results.

Test system: HepG2
Assay: cytotoxicity call (relative viability < 0.9)
Settings: 10 µM

| SMILES | cytotoxicity call |
| --- | --- |
| O=C(O)c1ccc(O)c(O)c1O | inactive |
| CO[C@H]1CN(C)C(=O)c2ccc(NC(=O)C3CC3)cc2OC[C@H](C)N(C(=O)CN2CCOCC2)C[C@@H]1C | inactive |
| C[C@H](CO)N1C[C@H](C)[C@@H](CN(C)S(=O)(=O)c2cn(C)cn2)Oc2ccc(NC(=O)Nc3ccc(F)cc3)cc2C1=O | inactive |
| O=C(C[C@H]1C[C@H]2c3cc(NC(=O)NC4CCCC4)ccc3O[C@H]2[C@H](CO)O1)NCc1ccc2c(c1)OCO2 | inactive |
| Cc1ccc(S(=O)(=O)N(C)C[C@H]2Oc3ccc(NC(=O)CCCN(C)C)cc3C(=O)N([C@@H](C)CO)C[C@@H]2C)cc1 | inactive |
| C[C@H]1CN([C@@H](C)CO)C(=O)c2cc(NC(=O)c3ccncc3)ccc2O[C@H]1CN(C)S(=O)(=O)c1cccs1 | inactive |
| Cc1noc(C)c1NC(=O)N[C@@H]1CC[C@@H](CC(=O)NCCCN(C)C)O[C@@H]1CO | inactive |
| C[C@@H]1CN([C@H](C)CO)C(=O)Cc2cc(NC(=O)CCN3CCOCC3)ccc2O[C@H]1CN(C)S(=O)(=O)c1ccc(Cl)cc1 | inactive |
| Cc1cc(C(=O)Nc2cccc3c2O[C@H](CN(C)Cc2ccncc2)[C@@H](C)CN([C@@H](C)CO)C3=O)n(C)n1 | inactive |
| Cc1ccc(S(=O)(=O)N(C)C[C@@H]2OCCCC[C@H](C)Oc3ccc(NC(=O)NC4CCCCC4)cc3C(=O)N([C@@H](C)CO)C[C@H]2C)cc1 | active |
| N[C@@H](COP(=O)(O)O)C(=O)O | inactive |
| C[C@@H]1CCCCO[C@H](CN(C)Cc2ccncc2)[C@H](C)CN([C@@H](C)CO)C(=O)c2cc(NC(=O)c3ccccc3)ccc2O1 | inactive |
